According to the supplement of paper PMC10126150:
Values marked as one replicate rest on one cluster of the flow cell; about a third of the high ones do not repeat.

These sequences were tested on ATP (assay: switch fluorescence ratio, 500 uM ATP over buffer (Cy3 cluster intensity, sum of 5 cycles each) (fold (ratio)); higher = stronger signal-on switching upon ATP binding; sequences stand for … in TCGTCGGCAGCGTCAGATGTGTATAAGAGACAGTTTTTTTTTTTTTTTTTTTTTTTTT…TC). Conditions: aptamer strand: ATP DNA aptamer (quencher-CACCTGGGGGAGTATTGCGGAGGAAGG + anchor), 100 nM annealed; ATP concentration: 500 uM; one replicate.
Procedure, shortened: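 Exposure to 500 uM ATP lasted 15 min at 22 °C before imaging, and a selection-buffer image was taken beforehand, for Cy3-labelled switching-strand clusters on a modified Illumina MiSeq flow-cell annealed to 100 nM quencher-labelled ATP aptamer. Five buffer/ATP cycles were run with NaOH stripping and re-annealing between them. The fluorescence ratio per cluster is summed target-cycle over summed buffer-cycle Cy3 intensity, averaged per switch-domain sequence. Clusters outside 100-1000 RFU were excluded.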

Row | Sequence | switch fluorescence ratio
1 | TCCGGGTAGA | 1.02
2 | GGGTATCCTA | 0.991
3 | GCGATCATAG | 1.02
4 | AGATCACCGT | 0.996
5 | CTGAAAGCGC | 0.988
6 | GCCTTCCCCA | 2.78
7 | TTACGAGTTA | 1.02
8 | AACGATGCTA | 1.06
9 | TGGCCTCAGT | 1.02
10 | GCGAACCTGA | 1.51
11 | GGTGGTTTGA | 0.986
12 | AAGCAATCAT | 1.22
13 | AACGGAATCC | 1.45
14 | CCAGGGAGAC | 1.2
15 | CTGCCCATAA | 1.17
16 | CTCTGATGCG | 1.01
17 | TTAGTCGTG | 1.03
18 | TGATGTTGG | 0.98
19 | AGTGAGTTAT | 1.01
20 | GGGGATGCCA | 0.955
21 | TCGGTTAAAA | 0.971
22 | ATGATGCGG | 0.993
23 | CCGCTGCTTC | 4.51
24 | TATTAGGCTA | 1.03
25 | CTAAGAATTG | 0.975
26 | TGGCAGCGTG | 1.02

Row | Sequence | switch fluorescence ratio
27 | AACTTATTT | 0.993
28 | ACTCGCCCAA | 1.51
29 | CCTGAACCAT | 1.03
30 | TGGGCCGAGT | 0.983
31 | CGATGTGCGT | 1.02
32 | ACCGCTGTA | 0.981
33 | AATAGGTGAC | 1.07
34 | CTGACTGTCA | 1.23
35 | CAGGTCATAG | 0.97
36 | TGTTATAAGT | 1
37 | TGAGTCGTTA | 0.991
38 | TCATTGCATG | 1.03
39 | CTGCTGTGTG | 1.02
40 | TTACCCCATC | 1.21
41 | ACTGGGAGCA | 1.04
42 | ATGCATTTAT | 0.998
43 | ACTTCTGAA | 0.964
44 | GTTAGGGAAT | 1.04
45 | ATTGAAAGGT | 0.97
46 | TCGTAGGGAT | 1.49
47 | CAAATGACCG | 1.07
48 | CTCTCTATGC | 2.19
49 | GATGGGCTTC | 0.969
50 | TGGACTAGTT | 1.02
51 | GATACCTTAT | 1.06
52 | GATTAGCCCG | 1

Row | Sequence | switch fluorescence ratio
53 | CAATCAGTTA | 1.02
54 | TGAACGGGGC | 1.01
55 | CTAAGGAGTC | 0.982
56 | GCACGAGCGA | 1.13
57 | CCAAATCAGT | 1.03
58 | CGGTAGTTAT | 1
59 | TTATTGCA | 1.03
60 | TTCTATTTAT | 1.02
61 | TCATTCATAG | 0.996
62 | CAAGCGCCCG | 0.983
63 | GGTTCTAAGG | 0.981
64 | AGGTAAAACT | 1
65 | GGTAGAATGT | 0.989
66 | TGAATTCGAT | 0.999
67 | GCGGATGGAG | 1.02
68 | CTGGCCTCGG | 0.985
69 | TCCGGGACGC | 1.15
70 | CACAGACCTT | 1.24
71 | GTTCTTTTC | 0.977
72 | ATATGGTCTT | 1.02
73 | GTCGTAGGTG | 0.983
74 | CTCAACCGAT | 1.03
75 | AATCGCAGCA | 1.09
76 | AGGGTTGTAC | 1.04
77 | AGAAGGCTCC | 1
78 | TGGCGTCCGC | 0.956

Row | Sequence | switch fluorescence ratio
79 | CACATCGCCC | 1.03
80 | GAATATTTCA | 1.01
81 | GTTGGGGAG | 1.02
82 | GCTTTGGCCA | 1.01
83 | TCGTGGCCAG | 0.953
84 | TCTTCTTGGC | 1.01
85 | ACAAGACGTT | 1.04
86 | AATCGTGATG | 1.01
87 | CTGGTAACGA | 1.01
88 | CCCACGAGGT | 1.41
89 | GTCGCGTGAG | 1.01
90 | AATTCATTTA | 0.988
91 | GGATCTGAAG | 1.06
92 | TGATACAAGT | 0.993
93 | GTCTTGATAT | 0.975
94 | TTCTATAGCC | 1.01
95 | AGGCTAGATG | 1.02
96 | AGGGCGATTC | 1.02
97 | CGAGAGGCAG | 0.999
98 | ATCGTACGGG | 1.03
99 | CAAACCCCCC | 1.22
100 | TACCTAAGTA | 1.03
101 | GCGCCTTTGG | 1.03
102 | GGTTGGTCGC | 1.02
103 | GACAGAGAAC | 1.03
104 | TATGGATA | 1.01

Row | Sequence | switch fluorescence ratio
105 | GTGTATTCAC | 1.03
106 | AAGAAGTAAG | 0.947
107 | TCTTGAAAGG | 0.955
108 | TTAGTAATTT | 1.13
109 | CAGTACAAAA | 0.95
110 | GCTACAACGA | 1.05
111 | GCTAGCTGCC | 1.05
112 | GAATGAAGAT | 1.01
113 | AGGGACAGGT | 0.999
114 | AAGAGGGCCA | 0.994
115 | AATTATTCCG | 1.02
116 | GAATATAAC | 1.01
117 | AGTATTTCTG | 1.05
118 | ATATTACGTT | 1.07
119 | TAGCAGGTG | 3.1
120 | CGGAAATTG | 0.95
121 | AAAGTAAAA | 0.905
122 | AGATGTGCAG | 1.04
123 | AGTGCTTCAA | 1.03
124 | AGGTTACTAT | 0.998
125 | GCGTTATTC | 1.01
126 | TACTCAAGC | 1.03
127 | CCGCGGCGG | 1.1
128 | TGGGTGGCAG | 1.01
129 | ACGGGTTTCG | 1.02
130 | CCATCTGTGA | 1.07

Row | Sequence | switch fluorescence ratio
131 | GTCGGGCTAG | 0.985
132 | CTCACCTCTC | 1.09
133 | GACAGCCCTT | 1.03
134 | TGGGTGACC | 0.99
135 | CCTGGAACAA | 1.39
136 | CGTGTTATCG | 0.966
137 | TGGCATATAG | 1.14
138 | CCCACATGGG | 1.14
139 | TGGCATTGGG | 1.02
140 | TTTTCATGTA | 1.05
141 | GTTGAGAAAT | 0.916
142 | CAGGGGTTCG | 0.962
143 | ATGGTTCTCA | 0.976
144 | AAGATTTC | 0.992
145 | CATGATG | 0.978
146 | ATAGAGGGAA | 0.978
147 | TGAATATCAC | 1.12
148 | GGCTCCACGC | 0.998
149 | TCGCCAAATG | 1.04
150 | GCTAGGTCAT | 1.01
151 | AGTACGCCTT | 1.01
152 | GGCTACCGGA | 0.973
153 | AGCTGTTTCC | 1.01
154 | TCAAATCGT | 1.02
155 | CTCCGGGTTT | 1.42
156 | TGAACCGAGA | 1.03

Row | Sequence | switch fluorescence ratio
157 | TAAGAATCTC | 1.03
158 | CTGGACACGT | 0.972
159 | CAGTTGAGCT | 1.02
160 | GAGCAGCTTG | 1.01
161 | AAAGAGCCAT | 1.03
162 | TCTTTGGAGT | 0.979
163 | CAGTACATAA | 1.04
164 | TCGTCTCTCA | 1.03
165 | TGCGGTTGCC | 1
166 | TGGTTCCTGA | 0.972
167 | CCTCGGATTG | 1.12
168 | GGGATGATGG | 0.994
169 | CAATGCGTCT | 0.93
170 | AGGTTTATAA | 0.997
171 | CATGTGGAGC | 1.02
172 | TGGGATTCTG | 0.967
173 | TATCGCCGTG | 1.07
174 | CGCGAAACTA | 0.978
175 | TCTCATTGTC | 1
176 | ACCCTTGCCG | 1.08
177 | TGATGTTTGT | 0.943
178 | ATGTTCCCTT | 0.999
179 | CTTTGCTGGT | 0.988
180 | TGAATGAGGT | 0.988
181 | GCTTCGTCTG | 1.11
182 | CCTAGTTTTA | 1.06

Row | Sequence | switch fluorescence ratio
183 | AGCTGCGGTC | 1.02
184 | GCCAATCTT | 0.968
185 | ATACTGATTG | 1.04
186 | TGCTAAAATA | 0.982
187 | TGACTTCATC | 1.11
188 | AGAATTGG | 0.924
189 | CGGCTTGAGC | 0.987
190 | CTGCGGGCTC | 1.31
191 | AAGCACTTAG | 1.12
192 | TAGTGAGCC | 0.971
193 | GAAGACGCTG | 0.958
194 | AACGTGCCGC | 1.24
195 | AGCGATGTAT | 1.01
196 | CTTTTCCAG | 1.21
197 | GTTGTGTGA | 1
198 | TCCCTAGTGC | 1.4
199 | CGTTTTTAGC | 0.986
200 | TTGGCATCAG | 1.04
201 | ACGATTGGAC | 1.05
